Assay results from the supplement of paper PMC11417369.
± gives the standard deviation of the averaged measurements. The list shows a part of the results.

What follows are sequences tested on PfAP2-G AP2 domain (GST-tagged) (assay: gcPBM binding intensity (ln(normalized median fluorescence intensity)); higher = stronger DNA binding).
Outline: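 An Agilent 4 × 180k array of primer-extended double-stranded 36-bp intergenic genomic probes, with negative controls, was incubated for 1 h with GST-tagged P. falciparum DNA-binding domains expressed in E. coli. Alexa488 anti-GST antibody detected bound protein, scanned at 488 nm. Binding intensity is the highest Masliner-normalised natural-log median intensity across replicate spots of either probe orientation.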

Row | Sequence | gcPBM binding intensity (ln)
1 | AAAAAAAAAAAAAGAGTGCAAACTATGATAATTTAA | 9.93 ± 0.042
2 | TTATTTCATTCTTGAAGTACGTGAAAAATGAAAACA [XGTACX_site4089] | 11.4 ± 1.1
3 | GAATAATATGGACATACACACATATACATACATATA [CACACA_site2114] | 10.9 ± 0.51
4 | TGAATACAAATTTACGCATGTAATTTCCAGAGGGAG [TGCATGCA_site769] | 10 ± 0.18
5 | AAAATAAAAGAAAAAAGTACAAAATCAGATTAATTA [XGTACX_site8413] | 11.1 ± 0.63
6 | TACTAATATGATATATAAATATTGTTATATAATAAT [XGTACX_negctrl_site227] | 9.63 ± 0.13
7 | TATAAAATATAATTAGCACACATATATAAAATATAT [CACACA_site9355] | 9.855 ± 0.049
8 | AATATATGTAATATATGTACTTAATTATATTTTAAT [XGTACX_site4382] | 11 ± 0.79
9 | TATATTTATTTATTCTGTACTGAAGACAGTTATGTA [XGTACX_site8857] | 10.8 ± 0.58
10 | ATAAATATATATATAGTGCATATAAGCCACCTTCAA [GTGCAC_site9628] | 10.03 ± 0.042
11 | TATATAATACAACATGCACACATATATATGTGAATC [CACACA_site8794] | 10.01 ± 0.064
12 | GTATATTTTTAAAGGTGTACTTTTTTTTTTTTTTTT [XGTACX_site721] | 11.8 ± 1.1
13 | ATATAAAACTATAATACACACATAAAATATATTATA [CACACA_site6588] | 9.89 ± 0.028
14 | CGTAATAAAAACAAATGTACATGACCTGGACAGGTT [XGTACX_site6560] | 11.3 ± 0.43
15 | AAACAAAATAAATATGAACACACACCGTTATGCCTT [CACACA_site8347] | 9.87 ± 0.17
16 | TATTTGTGGATTTTTACACACATTAATATATATATA [CACACA_site3375] | 9.92 ± 0.14
17 | AGGAAAATTATGAATGGTACAGAATATATTAGGAGA [XGTACX_site6282] | 10.6 ± 0.23
18 | AAGGAACTATAATATACACACATAAGTGTACTTATA [CACACA_site7816] | 11.5 ± 1
19 | ATATATGCATATATTTGTACACATTTTTTTACATAA [XGTACX_site4624] | 11.4 ± 0.71
20 | AAAAAAACGTAAAAATGTACTTTTTGTATATAACCT [XGTACX_site7950] | 11.1 ± 0.57
21 | AATAAGTTATTATTTTGTACACATAAATAATACGTT [XGTACX_site814] | 11.3 ± 0.93
22 | GCACTAAAAAAATAAACACACAGATTTATATAATAT [CACACA_site1381] | 9.87 ± 0.028
23 | TATTCGTGCAATAGTAGTACACTTAAAAATTATTCA [XGTACX_site269] | 11.6 ± 1.1

Row | Sequence | gcPBM binding intensity (ln)
24 | AAAATACACAGACACACACACATATAAATAAATATT [CACACA_site7871] | 10.2 ± 0.25
25 | ATTCGTTATAAAATATGTACATAAATATATATATAT [XGTACX_site2819] | 11.3 ± 0.67
26 | TAAAGCGACATTTGGAAAATATATATCCTAGCATTT [CACACA_negctrl_site327] | 9.82 ± 0.12
27 | TTATAAAATAAACTTACACACATGAAATATTATATT [CACACA_site1945] | 9.865 ± 0.021
28 | ACATAGATGCATATCACACATAATAATATTGTCGTA [CACACA_site4819] | 9.835 ± 0.021
29 | ATAATAAGACGATAAGGTACACAAAATGTTAATATA [XGTACX_site6984] | 11.1 ± 0.63
30 | GTAGACTGAAACCACACACACATATATATATATATT [CACACA_site605] | 10.2 ± 0.14
31 | TAATATTTCGCACTGTGTACTGAAATATTTATATCG [XGTACX_site516] | 11.2 ± 0.87
32 | ATATTAATATATAGAAGTACTCACATGTTAATATAA [XGTACX_site7323] | 11.4 ± 0.64
33 | TAACTATCATGTATTACACACAATATTTATTATATA [CACACA_site2701] | 9.99 ± 0.099
34 | TTAAATAAATAAATAACACACATATAAAAATAACGC [CACACA_site3266] | 10.05 ± 0.092
35 | AATAATAATAAAAATAAACACACATATATATGTATA [CACACA_site8928] | 9.58 ± 0.23
36 | ATTTCTTTTGTTATAGTGCATAATATTTATGTACGT | 10.7 ± 0.15
37 | AAAGAAAGAAAGAAAAGTACTTAAACTTTTAAAAAT [XGTACX_site8531] | 11.2 ± 0.61
38 | TATTCAAATTTCCACATACACACCTTGTAGATATAT [CACACA_site281] | 9.975 ± 0.064
39 | AAGACAAATTTTACATGTACAAATATATTACATATA [XGTACX_site7060] | 10.8 ± 0.35
40 | AAGAAAAAAAGCAACACACGTACCAACACAATTATG [CACACA_site3133] | 11 ± 0.49
41 | ATTTTTTTCCACTAGTGTACAAATTTTACATTGTGT [XGTACX_site5023] | 11.3 ± 0.81
42 | ACTAATGTAAAAGTTTGTACATATATTGAGAATTAT [XGTACX_site7439] | 11 ± 0.57
43 | CTATAATATTAGTGCACACACAAAAATGTACTAAAC [CACACA_site6442] | 11.1 ± 0.64
44 | AAGAAAAAAACAAAAAAAAAAAAAAAAATTCTTATT [TGCATGCA_negctrl_site504] | 9.26 ± 0.23
45 | AAAAGCACCGTTCGTTGTACACTGAAACACTTTTGT [XGTACX_site199] | 11.1 ± 0.63
